Reference: paper PMC8600046
Numbering of substitutions follows the chain as printed. These are yes or no findings as the source states them, for the method shown. In cells and extracts the contact can be indirect. Some binding calls cover weakened binding; strength is not graded here.

T1: PEX11G (UniProt Q96HA9)
T1 sequence: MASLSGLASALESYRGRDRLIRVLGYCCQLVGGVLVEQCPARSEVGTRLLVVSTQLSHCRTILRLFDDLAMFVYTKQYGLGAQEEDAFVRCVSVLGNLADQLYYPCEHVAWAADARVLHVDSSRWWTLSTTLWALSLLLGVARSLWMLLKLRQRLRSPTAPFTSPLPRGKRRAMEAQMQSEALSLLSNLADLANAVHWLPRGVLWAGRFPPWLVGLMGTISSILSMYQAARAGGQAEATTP

T2: PXMP4 (UniProt Q9Y6I8)
T2 sequence: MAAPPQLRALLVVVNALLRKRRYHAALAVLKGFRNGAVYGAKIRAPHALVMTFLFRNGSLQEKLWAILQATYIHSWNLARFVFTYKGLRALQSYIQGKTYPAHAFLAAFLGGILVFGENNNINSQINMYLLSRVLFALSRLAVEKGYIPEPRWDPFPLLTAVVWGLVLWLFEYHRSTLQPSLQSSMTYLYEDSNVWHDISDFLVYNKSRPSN

B1: peroxisome biogenesis factor 26 (PEX26) wild-type (protein, UniProt Q7Z412-1 1-305)
chain: MKSDSSTSAAPLRGLGGPLRSSEPVRAVPARAPAVDLLEEAADLLVVHLDFRAALETCERAWQSLANHAVAEEPAGTSLEVKCSLCVVGIQALAEMDRWQEVLSWVLQYYQVPEKLPPKVLELCILLYSKMQEPGAVLDVVGAWLQDPANQNLPEYGALAEFHVQRVLLPLGCLSEAEELVVGSAAFGEERRLDVLQAIHTARQQQKQEHSGSEEAQKPNLEGSVSHKFLSLPMLVRQLWDSAVSHFFSLPFKKSLLAALILCLLVVRFDPASPSSLHFLYKLAQLFRWIRKAAFSRLYQLRIRD
B2: PEX26 p.Pro117Leu (protein, UniProt Q7Z412-1 1-305)
chain: B1 chain with P117L
B3: PEX26 p.Leu153Val (protein, UniProt Q7Z412-1 1-305)
chain: B1 chain with L153V

Each binder was assayed against T1, PEX11G (assay: FRET or BRET; BRET in living HEK293 cells co-transfected with Rluc (donor) and YFP (acceptor) fusions, acceptor to donor ratio 3:1; read 48 h later with coelenterazine 30 μM; all eight combinations of N- or C-terminal fusions tested in duplicates; interaction assumed if at least one combination gave a BRET ratio above the threshold of 0.094).

binding | Binder
binds | B1
no binding | B2
binds | B3

The binders below were run against T2, PXMP4 in the same assay as above.

binding | Binder
binds | B1
binds | B2
no binding | B3
